± gives the standard deviation of the averaged measurements. Laboratory Escherichia coli strains with one amino-acid change in an essential protein, pooled on minimal glucose agar with carbenicillin or gentamicin at twice the control MIC (plus kanamycin and chloramphenicol for the plasmids), 48 h. Fold change of barcode share against drug-free plates; higher = less susceptible. Active = above 20 in both replicates (the paper's putatively resistant). '<' = one read or none on drug, '>' = one read or none on a drug-free plate. Shares are relative, so most strains fall below 1 when a few take over. Listed are strains with at least 15 reads on both drug-free plates, and hits; most hits rest on fewer reference reads. Replicate rank correlation about 0.5. Edits are read from barcodes.
Target: Escherichia coli (laboratory strain)
Experiment: barcode share on antibiotic plates over drug-free plates; higher = less susceptible
Details: antibiotic: gentamicin; 2× MIC (MIC 0.45 µg/mL)
Experimental: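 A pool of E. coli strains, each edited to carry one amino-acid change in an essential protein, was grown for 48 h on minimal glucose agar with or without antibiotic; strain barcodes were sequenced; mean of two replicates.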

| Protein | fold change of barcode share |
| --- | --- |
| nadD L26Q (protein) MKSLQALFGGTFDPVHYGHLKPVETQANLIGLTRVTIIPNNVPPHRPQPEANSVQRKHMLELAIADKPLFTLDERELKRNAPSYTAQTLKEWRQEQGPDVPLAFIIGQDSLLTFPTWYEYETILDNAHLIVCRRPGYPLEMAQPQYQQWLEDHLTHNPEDLHLQPAGKIYLAETPWFNISATIIRERLQNGESCEDLLPEPVLTYINQQGLYR | < 0.0198 |
| nadD L26D (protein) MKSLQALFGGTFDPVHYGHLKPVETDANLIGLTRVTIIPNNVPPHRPQPEANSVQRKHMLELAIADKPLFTLDERELKRNAPSYTAQTLKEWRQEQGPDVPLAFIIGQDSLLTFPTWYEYETILDNAHLIVCRRPGYPLEMAQPQYQQWLEDHLTHNPEDLHLQPAGKIYLAETPWFNISATIIRERLQNGESCEDLLPEPVLTYINQQGLYR | < 0.0152 |
| murI V90A (protein) MATKLQDGNTPCLAATPSEPRPTVLVFDSGVGGLSVYDEIRHLLPDLHYIYAFDNVAFPYGEKSEAFIVERVVAIVTAVQERYPLALAVAACNTASTVSLPALREKFDFPVVGVVPAIKPAARLTANGIVGLLATRGTVKRSYTHELIARFANECQIEMLGSAEMVELAEAKLHGEDVSLDALKRILRPWLRMKEPPDTVVLGCTHFPLLQEELLQVLPEGTRLVDSGAAIARRTAWLLEHEAPDAKSADANIAFCMAMTPGAEQLLPVLQRYGFETLEKLAVLG | 0.00585 ± 0.0026 |
| murI L25A (protein) MATKLQDGNTPCLAATPSEPRPTVAVFDSGVGGLSVYDEIRHLLPDLHYIYAFDNVAFPYGEKSEAFIVERVVAIVTAVQERYPLALAVVACNTASTVSLPALREKFDFPVVGVVPAIKPAARLTANGIVGLLATRGTVKRSYTHELIARFANECQIEMLGSAEMVELAEAKLHGEDVSLDALKRILRPWLRMKEPPDTVVLGCTHFPLLQEELLQVLPEGTRLVDSGAAIARRTAWLLEHEAPDAKSADANIAFCMAMTPGAEQLLPVLQRYGFETLEKLAVLG | < 0.0119 |
| murI V76A (protein) MATKLQDGNTPCLAATPSEPRPTVLVFDSGVGGLSVYDEIRHLLPDLHYIYAFDNVAFPYGEKSEAFIVERVVAIATAVQERYPLALAVVACNTASTVSLPALREKFDFPVVGVVPAIKPAARLTANGIVGLLATRGTVKRSYTHELIARFANECQIEMLGSAEMVELAEAKLHGEDVSLDALKRILRPWLRMKEPPDTVVLGCTHFPLLQEELLQVLPEGTRLVDSGAAIARRTAWLLEHEAPDAKSADANIAFCMAMTPGAEQLLPVLQRYGFETLEKLAVLG | < 0.0182 |
| murI V201A (protein) MATKLQDGNTPCLAATPSEPRPTVLVFDSGVGGLSVYDEIRHLLPDLHYIYAFDNVAFPYGEKSEAFIVERVVAIVTAVQERYPLALAVVACNTASTVSLPALREKFDFPVVGVVPAIKPAARLTANGIVGLLATRGTVKRSYTHELIARFANECQIEMLGSAEMVELAEAKLHGEDVSLDALKRILRPWLRMKEPPDTVALGCTHFPLLQEELLQVLPEGTRLVDSGAAIARRTAWLLEHEAPDAKSADANIAFCMAMTPGAEQLLPVLQRYGFETLEKLAVLG | < 0.0181 |
| murI L132A (protein) MATKLQDGNTPCLAATPSEPRPTVLVFDSGVGGLSVYDEIRHLLPDLHYIYAFDNVAFPYGEKSEAFIVERVVAIVTAVQERYPLALAVVACNTASTVSLPALREKFDFPVVGVVPAIKPAARLTANGIVGALATRGTVKRSYTHELIARFANECQIEMLGSAEMVELAEAKLHGEDVSLDALKRILRPWLRMKEPPDTVVLGCTHFPLLQEELLQVLPEGTRLVDSGAAIARRTAWLLEHEAPDAKSADANIAFCMAMTPGAEQLLPVLQRYGFETLEKLAVLG | < 0.0186 |
| murI V90D (protein) MATKLQDGNTPCLAATPSEPRPTVLVFDSGVGGLSVYDEIRHLLPDLHYIYAFDNVAFPYGEKSEAFIVERVVAIVTAVQERYPLALAVDACNTASTVSLPALREKFDFPVVGVVPAIKPAARLTANGIVGLLATRGTVKRSYTHELIARFANECQIEMLGSAEMVELAEAKLHGEDVSLDALKRILRPWLRMKEPPDTVVLGCTHFPLLQEELLQVLPEGTRLVDSGAAIARRTAWLLEHEAPDAKSADANIAFCMAMTPGAEQLLPVLQRYGFETLEKLAVLG | 0.00356 ± 0.0002 |
| nadE I79A (protein) MTLQQQIIKALGAKPQINAEEEIRRSVDFLKSYLQTYPFIKSLVLGISGGQDSTLAGKLCQMAINELRLETGNESLQFAAVRLPYGVQADEQDCQDAIAFIQPDRVLTVNIKGAVLASEQALREAGIELSDFVRGNEKARERMKAQYSIAGMTSGVVVGTDHAAEAITGFFTKYGDGGTDINPLYRLNKRQGKQLLAALACPEHLYKKAPTADLEDDRPSLPDEVALGVTYDNIDDYLEGKNVPQQVARTIENWYLKTEHKRRPPITVFDDFWKK | < 0.0152 |
| nadE F78A (protein) MTLQQQIIKALGAKPQINAEEEIRRSVDFLKSYLQTYPFIKSLVLGISGGQDSTLAGKLCQMAINELRLETGNESLQAIAVRLPYGVQADEQDCQDAIAFIQPDRVLTVNIKGAVLASEQALREAGIELSDFVRGNEKARERMKAQYSIAGMTSGVVVGTDHAAEAITGFFTKYGDGGTDINPLYRLNKRQGKQLLAALACPEHLYKKAPTADLEDDRPSLPDEVALGVTYDNIDDYLEGKNVPQQVARTIENWYLKTEHKRRPPITVFDDFWKK | < 0.0143 |
| nadE F78W (protein) MTLQQQIIKALGAKPQINAEEEIRRSVDFLKSYLQTYPFIKSLVLGISGGQDSTLAGKLCQMAINELRLETGNESLQWIAVRLPYGVQADEQDCQDAIAFIQPDRVLTVNIKGAVLASEQALREAGIELSDFVRGNEKARERMKAQYSIAGMTSGVVVGTDHAAEAITGFFTKYGDGGTDINPLYRLNKRQGKQLLAALACPEHLYKKAPTADLEDDRPSLPDEVALGVTYDNIDDYLEGKNVPQQVARTIENWYLKTEHKRRPPITVFDDFWKK | < 0.0206 |
| murG V121P (protein) MSGQGKRLMVMAGGTGGHVFPGLAVAHHLMAQGWQVRWLGTADRMEADLVPKHGIEIDFIRISGLRGKGIKALIAAPLRIFNAWRQARAIMKAYKPDVVLGMGGYVSGPGGLAAWSLGIPPVLHEQNGIAGLTNKWLAKIATKVMQAFPGAFPNAEVVGNPVRTDVLALPLPQQRLAGREGPVRVLVVGGSQGARILNQTMPQVAAKLGDSVTIWHQSGKGSQQSVEQAYAEAGQPQHKVTEFIDDMAAAYAWADVVVCRSGALTVSEIAAAGLPALFVPFQHKDRQQYWNALPLEKAGAAKIIEQPQLSVDAVANTLAGWSRETLLTMAERARAASIPDATERVANEVSRVARA | < 0.00306 |
| nadA V234W (protein) MSVMFDPDTAIYPFPPKPTPLSIDEKAYYREKIKRLLKERNAVMVAHYYTDPEIQQLAEETGGCISDSLEMARFGAKHPASTLLVAGVRFMGETAKILSPEKTILMPTLQAECSLDLGCPVEEFNAFCDAHPDRTVVVYANTSAAVKARADWVVTSSIAVELIDHLDSLGEKIIWAPDKHLGRYVQKQTGGDILCWQGACIVHDEFKTQALTRLQEEYPDAAILVHPESPQAIWDMADAVGSTSQLIAAAKTLPHQRLIVATDRGIFYKMQQAVPDKELLEAPTAGEGATCRSCAHCPWMAMNGLQAIAEALEQEGSNHEVHVDERLRERALVPLNRMLDFAATLRG | 0.0948 ± 0.099 |
